Measurements taken from patent US20230265152A1, “GLP-1R AGONIST / FGF21 FUSION PROTEINS” (SANOFI, priority 2020, published 2023).

B1: SEQ ID NO: 7: GLP-1RA/FGF21 Fc fusion protein (protein)
chain: GHGEGTFTSDKSKQLEEEAVRLFIEWLKAGGPKKIRYSGGGGGGGSGGGGSGGGGSA[in this place human IgG1 Fc with changes]GGGSGSAHPIPDSSPLLQFGGQVRQRYLYTDDACQTEAHLEIREDGTVGGAADQSPESLLQLKALKPGVIQILGVKTSRFLCQRPDGALYGSLHFDPEACSFRELLLEDGYNVYQSEAHGLPLHLPGCKSPHRDPAPRGPARFLPLPGLPPAPPEPPGILAPQPPDVGSSDPLSMVGSQGRSPSYAS
modifications: Fusion Protein
notes: GLP-1RA/FGF21 Fc fusion protein
B2: 7 (protein)
chain: GHGEGTFTSDKSKQLEEEAVRLFIEWLKAGGPKKIRYSGGGGGGGSGGGGSGGGGSA[in this place human IgG1 Fc with changes]GGGSGSAHPIPDSSPLLQFGGQVRQRYLYTDDACQTEAHLEIREDGTVGGAADQSPESLLQLKALKPGVIQILGVKTSRFLCQRPDGALYGSLHFDPEACSFRELLLEDGYNVYQSEAHGLPLHLPGCKSPHRDPAPRGPARFLPLPGLPPAPPEPPGILAPQPPDVGSSDPLSMVGSQGRSPSYAS
modifications: Fusion Protein
B3: 3 (protein)
chain: GHGEGTFTSDKSKQLEEEAVRLFIEWLKAGGPKKIRYSGGGGGGGSGGGGSGGGGSA[in this place human IgG4 Fc with changes]GGGSGSAHPIPDSSPLLQFGGQVRQRYLYTDDACQTEAHLEIREDGTVGGAADQSPESLLQLKALKPGVIQILGVKTSRFLCQRPDGALYGSLHFDPEACSFRELLLEDGYNVYQSEAHGLPLHLPGCKSPHRDPAPRGPARFLPLPGLPPAPPEPPGILAPQPPDVGSSDPLSMVGSQGRSPSYAS
modifications: Fusion Protein
B4: SEQ ID NO: 8: GLP-1RA/FGF21 Fc fusion protein (protein)
chain: GHGEGTFTSDKSKQLEEEAVRLFIEWLKAGGPKKIRYSGGGGGGGSGGGGSGGGGSA[in this place human IgG1 Fc with changes]GGGSGSAHPIPDSSPLLQFGGQVRQRYLYTDDACQTEAHLEIREDGTVGGAADQSPESLLQLKALKPGVIQILGVKTSRFLCQRPDGALYGSLHFDPEACSFRELLLEDGYNVYQSEAHGLPLHLPGCKSPHRDPAPRGPARFLPLPGLPPAPPEPPGILAPQPPDVGSSDPLSMVYPSQGRSPSYAS
modifications: Fusion Protein
notes: as for B1
B5: 8 (protein)
chain: GHGEGTFTSDKSKQLEEEAVRLFIEWLKAGGPKKIRYSGGGGGGGSGGGGSGGGGSA[in this place human IgG1 Fc with changes]GGGSGSAHPIPDSSPLLQFGGQVRQRYLYTDDACQTEAHLEIREDGTVGGAADQSPESLLQLKALKPGVIQILGVKTSRFLCQRPDGALYGSLHFDPEACSFRELLLEDGYNVYQSEAHGLPLHLPGCKSPHRDPAPRGPARFLPLPGLPPAPPEPPGILAPQPPDVGSSDPLSMVYPSQGRSPSYAS
modifications: Fusion Protein
B6: 5 (protein)
chain: GHGEGTFTSDKSKQLEEEAVRLFIEWLKAGGPKKIRYSGGGGGGGSGGGGSGGGGSA[in this place human IgG4 Fc with changes]GGGSGSAHPIPDSSPLLQFGGQVRQRYLYTDDACQTEAHLEIREDGTVGGAADQSPESLLQLKALKPGVIQILGVKTSRFLCQRPDGALYGSLHFDPEACSFRELLLEDGYNVYQSEAHGLPLHLPGCKSPHRDPAPRGPARFLPLPGLPPAPPEPPGILAPQPPDVGSSDPLSMVYPSQGRSPSYAS
modifications: Fusion Protein

Key:
[1] = test system: female diabetic db/db mice; assay: Blood glucose-lowering effects of multiple subcutaneous doses in fed female diabetic db/db mice; format: in vivo, mouse; conditions: for blood glucose levels: 24 hour blood glucose profile, s.c. once weekly, vs vehicle or dulaglutide (FIG. 11); for HbA1c increase: by the end of the study (day 36), vs vehicle or dulaglutide (FIG. 12)
Method: Female, healthy, lean (BKS.Cg-(lean)/OlaHsd or BKS.Cg-Dock7(m)+/+ Lepr(db)J) and diabetes-prone, obese db/db (BKS.Cg-+Leprdb/+Leprdb/OlaHsd or BKS.CG-m +/+ Lepr(db)/J) mice were ordered from Envigo RMS Inc. or Charles River Laboratories. All animals were group housed in shoebox cages with wood chip bedding and were acclimated for approximately 2 to 3 weeks prior to dosing phase.
Mice were housed under vivarium conditions including a 12 hour light/dark cycle (light phase 04:00 AM - 4:00 PM), a room temperature between 20 - 26° C. and a relative humidity between 30 - 70%. All animals had free access to Greenfield city water and a Purina Fomulab Diet 5008. At the study start mice were approximately 10-12 weeks old.
Blood was collected for a HbA1c and blood glucose measurement on day 9 via tail clips. Blood glucose concentrations were measured using AlphaTRAK glucometers extended range (code 29 strips). Glucometer measurements were taken prior to any other in life activities and were performed in duplicate. If the values differed by more than 20 mg/dL (calculated glucometer value) a third value was recorded. Body mass measurements were collected on days 9 and 15. HbA1c and body mass values were used for block randomization. Animals were assigned to treatment groups (n = 8/group) and to new cages and cage mates (n=4 animals/cage) on day 15 according to block randomization results. The lean group was included in the study as an age-matched, healthy reference group.
Animals were either treated with a subcutaneous injection volume of 5 ml/kg of vehicle (sterile PBS), dulaglutide, SEQ ID NO: 8 or SEQ ID NO: 7 once on days 1, 8, 15, 22, and 27 of the dosing phase. Dosing was completed between 10:00 and 12:00 AM and was adjusted to the most recent body mass recording of each individual. Injection solutions including Trulicity (Dulaglutide Pen) were prepared by addition of sterile PBS to the stock solutions or Pen formulation in order to achieve the appropriate concentrations.
1) Blood glucose concentrations in morning-fed animals: Animals had unlimited access to water and feed during the experiment. Blood glucose was measured prior to any other in life activities between 10:00 to 12:00 AM on days 1, 2, 8, 9, 15, 16, 22, 23, 27, and 28 as well as 24 hours post-dose on days 2, 9, 16, 23, and 28. In addition, on days 1 and 22, blood was collected 1, 2, 3, 4, 6 and 24 hours post-dose (FIG. 11). […] If the values differed by more than 20 mg/dL (calculated glucose value), then a third value was recorded. The Area Under the Curve (AUC) was calculated by the trapezoid method for each individual and time period as indicated. […]

[2] = Conformational and thermal stability on UNit (intrinsic fluorescence BCM and static light scattering); format: physicochemical; conditions: for Tagg: UNit SLS 266 nm, 5 mg/mL in phosphate buffer pH 7.4; for Tm: UNit, 5 mg/mL in phosphate buffer pH 7.4, 20 to 95° C. at 0.3° C./min
Method: Conformational stability and propensity to aggregate was determined simultaneously for the GLP-1RA/FGF21 Fc fusion proteins using a UNit (Unchained Labs, CA, USA). The UNit combines the analysis of intrinsic fluorescence of a protein to detect unfolding of the protein and a Static Light Scattering (SLS) measurement in order to investigate the aggregation behavior.
Data were acquired for the fusion proteins at a concentration of 5 mg/mL formulated in phosphate buffer at pH 7.4. A volume of 9 µL of each sample were loaded into a UNi capillary holder and analyzed in triplicate on the UNit. The temperature was increased from 20 to 95° C. at a constant linear rate of 0.3° C./min. The BaryCentric Mean (BCM) indicating the intrinsic fluorescence and SLS signals detected with a 266 nm laser were plotted against the applied temperature in order to obtain melting temperatures (Tm) and aggregation onset temperatures (Tagg). Data were analyzed using the UNit Analysis software v.

[3] = Pharmacokinetics after single subcutaneous administration in mouse; format: in vivo, female C57Bl/6 mice; conditions: 0.3 mg/kg s.c.
Method: (§1) Plasma concentrations and pharmacokinetic parameters of GLP-1RA/FGF21 Fc fusion proteins were determined after single subcutaneous administration of 0.3 mg/kg in solution to female C57Bl/6 mice or male Cynomolgus monkeys using three different methods. Blood samples were obtained at time points from 30 minutes to 168 hours after dosing.
(§2) Plasma samples were analyzed for the intact FGF21 part of the fusion proteins with an ELISA kit (F1231-K01, Eagle Biosciences, USA). The assay utilized the two-site sandwich technique with two selected antibodies that bound to different epitopes of human intact FGF21. One of the antibodies specifically bound to the N-terminal amino acids (aa 29-35) of human FGF21, and the other antibody specifically bound to the C-terminus (aa 203-209) of human FGF21. Assay standards, controls and unknown samples were added directly to wells of microplate that was coated with an anti-human FGF21 (aa 29-35)-specific antibody. Simultaneously, a horseradish peroxidase conjugated anti-human FGF21 (aa 203-209)-specific antibody was added to each well. After the first incubation period, the antibody on the walls of the microtiter wells captured human FGF21 in the sample and unbound protein in each microtiter well was washed away. A “sandwich” of “anti-FGF21 antibody-human intact FGF21-HRP conjugated tracer antibody” was formed. The unbound tracer antibody was removed in the subsequent washing step. For the detection of the immunocomplex, the well was then incubated with a substrate solution in a timed reaction and then measured in a spectrophotometric microplate reader. The enzymatic activity of the immunocomplex bound to human intact FGF21 on the wall of the microtiter wells was directly proportional to the amount of intact FGF21 in the sample.
The concentration of the full-length GLP-1RA/FGF21 Fc fusion proteins in plasma were determined utilizing an ELISA method. The N-terminus of the fusion proteins were captured by a mouse monoclonal anti-GLP1 antibody (Mesoscale Discovery, MSD). Following blocking the plates with 150 µL of Blocker A (MSD) for 1 hour at room temperature (RT) with gentle shaking and washing 3 times with 300 µL wash buffer 50 µL of diluted plasma samples (standards and PK study samples) were added to each well and the plates were incubated for 1 hour at RT with gentle shaking. […] Following washing 3 times with 300 µL PBS-T 150 µL read buffer was added to the wells.
Plasma samples were analyzed for the intact GLP-1 part of the fusion proteins with a GLP-1 ELISA method. […] Following washing 3 times with 300 µL PBS-T, 150 µL read buffer was added to the wells.
The pharmacokinetic parameters were calculated by the program WinNonlin 6.4 using a non-compartmental model and linear trapezoidal interpolation calculation. […]

[4] = Pharmacokinetics after single subcutaneous administration in non-human primate; format: in vivo, male Cynomolgus monkeys; conditions: 0.3 mg/kg s.c.
Method: as §1, §2
The concentration of the full-length GLP-1RA/FGF21 Fc fusion proteins in plasma were determined utilizing an ELISA method. The N-terminus of the fusion proteins were captured by a mouse monoclonal anti-GLP1 antibody (Mesoscale Discovery, MSD). Following blocking the plates with 150 µL of Blocker A (MSD) for 1 hour at room temperature (RT) with gentle shaking and washing 3 times with 300 µL wash buffer 50 µL of diluted plasma samples (standards and PK study samples) were added to each well and the plates were incubated for 1 hour at RT with gentle shaking. Following washing 3 times with 300 µL wash buffer, 50 µL of the primer detection antibody (C-terminus rabbit anti-FGF21 antibody, Pineda Antikörper-Service, Berlin, Germany) was added to each well and the plates were incubated for 1 hour at RT. Following washing 3 times with 300 µL wash buffer, 25 µL goat-anti-rabbit antibody (Sulfo-Tag labelled, MSD) diluted in PBS-Tween 0.05% (PBS-T) was added to each well and the plates were incubated for 1 hour at RT. Following washing 3 times with 300 µL PBS-T 150 µL read buffer was added to the wells.
Plasma samples were analyzed for the intact GLP-1 part of the fusion proteins with a GLP-1 ELISA method. The ELISA plates were coated with mouse monoclonal anti-GLP-1 antibody (Mesoscale Discovery, MSD). Following blocking with 150 µL of Blocker A (MSD) for 1 hour at room temperature (RT) with gentle shaking and washing 3 times with 300 µL PBS-T, 50 µL of diluted plasma samples (standards and PK study samples) were added to each well and the plates were incubated for 1 hour at RT with gentle shaking. Following washing 3 times with 300 µL PBS-T, 25 µL of goat anti-human IgG diluted (1/3,333) in PBS-T (Sulfo-Tag labelled, MSD) was added to each well and the plates were incubated for 1 hour at RT. Following washing 3 times with 300 µL PBS-T, 150 µL read buffer was added to the wells.
The pharmacokinetic parameters were calculated by the program WinNonlin 6.4 using a non-compartmental model and linear trapezoidal interpolation calculation. The results are presented in FIGS. 7 and 8 as well as in Table 6.

Molecule	blood glucose levels [1]	HbA1c increase [1]	Tagg [2]	Tm [2]	t½ mouse ([3]; assay FGF21 intact)	t½ mouse ([3]; assay full-length)	t½ monkey ([4]; assay FGF21 intact)	t½ monkey ([4]; assay GLP-1 intact)	t½ monkey ([4]; assay full-length)
B1	the lowering effect on blood glucose levels was significantly greater than in vehicle or dulaglutide treated animals	more pronounced suppression of HbA1c increase by the end of the study than vehicle or dulaglutide treated animals							
B2			66.1 °C	68.7 °C	14.2 h	13.9 h	31.7 h	21.3 h	28.7 h
B3			65.3 °C	63.9 °C					
B4	the lowering effect on blood glucose levels was significantly greater than in vehicle or dulaglutide treated animals	more pronounced suppression of HbA1c increase by the end of the study than vehicle or dulaglutide treated animals							
B5			65.3 °C	68.6 °C	17.9 h	13.3 h	33.6 h	23.7 h	27.6 h
B6			63.2 °C	62.6 °C					
